Experimental data published in article PMC12205066, “Lysosomal EGFR acts as a Rheb-GEF independent of its kinase activity to activate mTORC1” (Cell Research, 2025).
Blank lines part the entries; values can stand above or below the binder they belong to.

Experiments:
[1] = biological target: T1, purified EGFR-TKD-WT (amino acids 696-1022) (human, UniProt P00533 696-1022); experiment: pull-down; 15 μg EGFR-TKD with 15 μg GDP-loaded GST-Rheb, GST beads, overnight at 4 °C, Coomassie staining; settings: both partners purified
T1 construct: Cloned into pFastBac1 by EcoRI and XbaI; the tag is not described; also called tyrosine kinase domain of EGFR; source: Sf9, baculovirus, purified (Ni-NTA, Superdex 200)

[2] = biological target: T1, purified EGFR-TKD-WT (amino acids …); experiment: SEC; EGFR-TKD incubated with a 3-fold molar excess of Rheb-D60V in buffer B (50 mM HEPES pH 7.5, 5 mM MgCl2, 1 mM DTT) with 1 mM EDTA overnight at 4 °C, size exclusion in buffer B; complex peak at 10.22 mL, fractions on SDS-PAGE; settings: both partners purified

binding result [1]: binds
B1: GST-tagged Rheb […] (domain or fragment)
chain: not shown
notes: human Rheb, wild type, […]; also used nucleotide-free or loaded with GDP or GTPgammaS; In the nucleotide exchange assays purified Rheb-GDP was used (GST may have been cleaved by HRV3C); also called GST-Rheb; Rheb-WT; source: E. coli BL21(DE3), purified (GST resin); not shown: GST, N-terminal, kept

binding result [2]: binds
B2: purified Rheb-D60V ([…]) (domain or fragment)
chain: not shown
notes: human Rheb, […], with D60V; The methods say that Rheb was cleaved from GST with HRV3C protease when necessary; source: E. coli BL21(DE3), purified (GST resin, Superdex 200)
